Data as given in the antibiotic and cytotoxicity screens of Wong et al. (2023).
The other results are listed elsewhere or left out.

Columns and labels:
HSkMC = human skeletal muscle cells; assay: cytotoxicity call (relative viability < 0.9); details: 10 µM
HepG2 = assay: cytotoxicity call (relative viability < 0.9); details: 10 µM
S. aureus RN4220 = assay: growth inhibition call (relative growth <= 0.2); details: 50 µM

Row | SMILES | cytotoxicity call (HSkMC) | cytotoxicity call (HepG2) | growth inhibition call (S. aureus RN4220)
1 | O=C(NCCO)c1cccc(C(=O)NCCO)c1 | inactive | inactive | inactive
2 | COCC(=O)N1C[C@]2(CCN(CC2)C(=O)CN2CCOCC2)c2c([nH]c3cc(ccc23)OC)[C@H]1CO | inactive | inactive | inactive
3 | C=c1ccc(S(=O)(=O)NC[C@@H](C)O)cc1=C1NN=C2c3ccccc3C(C)=NN21 | inactive | inactive | inactive
4 | FC(F)(F)Oc1ccccc1 | inactive | inactive | inactive
5 | C[C@@H]1CN([C@@H](C)CO)C(=O)c2cc(C#Cc3ccccn3)cnc2O[C@@H]1CN(C)C(=O)c1cnccn1 | inactive | inactive | inactive
6 | COc1ccc(S(=O)(=O)N(C)C[C@@H]2Oc3c(NC(=O)c4cnccn4)cccc3C(=O)N([C@@H](C)CO)C[C@@H]2C)cc1 | inactive | inactive | inactive
7 | C[C@@H]1CN([C@H](C)CO)S(=O)(=O)c2ccc(C#CC3CC3)cc2O[C@H]1CN(C)C(=O)C1CCCCC1 | inactive | inactive | inactive
8 | C[C@H](CO)N1C[C@H](C)[C@@H](CN(C)S(=O)(=O)c2ccc(Cl)cc2)OCCCC[C@H](C)Oc2ccc(NC(=O)Nc3ccc(C(F)(F)F)cc3)cc2C1=O | inactive | inactive | inactive
9 | C[C@@H]1CCCCO[C@@H](CN(C)S(=O)(=O)c2cccs2)[C@@H](C)CN([C@@H](C)CO)C(=O)c2cc(NC(=O)Nc3ccccc3)ccc2O1 | inactive | inactive | inactive
10 | O=C(CCc1cn(CC(=O)N2CCC3(CC2)C(=O)NCN3c2ccccc2)nn1)NO | inactive | active | active
